Measured values as given in the RNAGym collection of RNA variant scans (doi:10.1093/nar/gkz1192).
Read counts are not given, so values of variants with three or more changes are uncertain.

B1: CPEB3 Ribozyme (parent)
chain: UAACAGGGGGCCACAGCAGAAGCGUUCACGUCGCAGCCCCUGUCAGAUUCUGGUGAAUCUGCGAAUUCUGCUGUAUAUCUC

Variants of: B1
Experiment: self-cleavage, relative activity (ratio to wild type); higher = more cleavage; in vitro, sequencing
In short: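 Barcoded CPEB3 ribozyme mutants, produced by rounds of error-prone PCR, self-cleaved while being transcribed with T7 RNA polymerase for 5 hours at 37°C and during a subsequent 15 min DNase I step before EDTA was added. Sequencing of template-switched cDNA on Illumina gave cleaved and total reads, and DNA sequencing assigned barcodes to variants. Each variant's relative activity is its cleaved/total read fraction divided by the unmutated ribozyme's fraction, averaged across three batches. A variant needed a minimum of 5 reads.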

Variant	self-cleavage
UAACGGGGGGCCACAGCAGUAGCGCUCACGUCGCAGCCCCUGCCAGAUUCUGGUGAAUCUGCGAAUUCUGCUGUAUAUCUC	0.39
UAACGGGGGGCCACAGCAGUAGCGUACACGUCGCAGCCCCUGUCAGAUUCUGGUGAAUCUGCGAAUUCUGCUGUAUAUCUC	0.35
UAACGGGGGGCCACAGCAGUAGCGUACACGUCGCAGCCCCUGUCAGAUUCUGGUGAAUCUGCGGAUUCUGCUGUAUAUCUC	0.29
UAACGGGGGGCCACAGCAGUAGCGUUCACGCCGCAGCCCCUGUCAGAUUCUGGUGAAUCUGCGAAUUCUGCUGUAUAUCUC	0.42
UAACGGGGGGCCACAGCAGUAGCGUUCACGGCGCAGCCCCUGUCAGAUUCUGGCGAAUCUGCGAAUACUGCUAUAUAUCUC	0.73
UAACGGGGGGCCACAGCAGUAGCGUUCACGUCGCAGCCCCUGUCAGACUCUGGUGGAUCUGCGAAUUCUGCUGUAUAUCUC	0.32
UAACGGGGGGCCACAGCAGUAGCGUUCACGUCGCAGCCCCUGUCAGAUUCUGGUGAAUCUGCGAAUGCUGCUGUAUAUCUC	0.64
UAACGGGGGGCCACAGCAGUAGCGUUCACGUCGCAGCCCCUGUCAGAUUCUGGUGAAUCUGCGAAUUCUGCUGUAUAUCAC	0.56
UAACGGGGGGCCACAGCAGACGCGUUCACGUCGCAGCCCCUGUCGGAUUCUGGUGAAUCUGCGAAUUCUGCUGUAUAUCUC	0.39
UAACGGGGGGCCACAGCAGACGCGUCCACGUCGCUGCCCCUGUCAGAUUCUGGUGAAUCCGCGAGCUCUGCUGUAUAUCUC	0.32
UAACGGGGGGCCACAGCAGAGGCGUUCGCGUCGCAGCCCCUGUCAGAUCCUGGUGAAUCUGCGAAUUCUGCUGUAUAUCUC	0
UAACGGGGGGCCACAGCAGAGGCGUUCACGUCGCUGCCCCUGUCGGGUUCUGGUGAAUCUGCGAAUCCUGCUGUAUAUCUC	0.05
UAACGGGGGGCCACAGCAGAGGCGUUCACGUCGCUGUCCCUGUCAGAUUCUGGUGUAUCCGCGAAUUCUGCUGUAUAUCUC	0.08
UAACGGGGGGCCACAGCAGAGGCGUUCACGUCGCAGCCCCUGUCGGAUUCUGGUGAAUCUGCGAGUCCUGCUGUAUAACUC	0.11
UAACGGGGGGCCACAGCAGAGGCGUUCACGUCGCAGCCCCUGUCGGAUUCUGGUGAAUAUGCGUAUUCUGCUGUAUAUCUC	0.09
UAACGGGGGGCCACAGCAGAGGCGUUCACGUCGCAGCCCCUGUCAGGUUCUGGUGAAUCUGCGAAUUCUGCUGCAUAUCUC	0.77
UAACGGGGGGCCACAGCAGAGGCGUUCACGUCGCAGCCCCUGUCAGAUUCUGGUGGAUCUGCGAAUUCUGCAGUAUAUCUC	0.17

Variant	self-cleavage
UAACGGGGGGCCACAGCAGAGGAGUUCACGUCGCAGCCCCUGUCAGGUUUUGGUGAAUCCGCGAAUUCUGCUGUAUAUCUC	0.2
UAACGGGGGGCCACAGCAGAGGCGUUCACGUCGCAGCCCCUGUCAGAUUCUGGUGAAUCUGCGAAUUUUGCAGUACAUCUC	0.63
UAACGGGGGGCCACAGCAGAGCCGCUCACGUCGCAGCCCCUGUCAGAUUCUGGUGAAUCUGCGAAUUCUGCUGUAUAUCUC	0.17
UAACGGGGGGCCACAGCAGAGGCGUUCACAUCGCAGCCCCUGUCAGAUUCUGGUGAAUCAGCGAAUUCUGCUGUAUAUCUC	0.08
UAACGGGGGGCCACAGCAGAGGCGUUCACCUCGCAGCCCCUGUCAGAUUCUGGUAAAUCUGCGAGUUCUGCUGUAUAUCUC	0.1
UAACGGGGGGCCACAGCAGAGGCGUUCACGUCCCAGCCCCAGGCAGAUUCUGGUGAAUCUGCGAAUUCUGCAGUAUACCUC	0.04
UAACGGGGGGCCACAGCAGAGGCGUUCACGUCUCUGCCCCUGUCAGAUUCUGGUGAAUCAGCGCAUUCUGCUGUAUAUCUC	0.08
UAACGGGGGGCCACAGCAGAGGCGUUCACGUCGCAGCCCCUGUCAGAUUCUGAUGAAUCUGCGAAUUCUGCAGUAUAUCUC	0.25
UAACGGGGGGCCACAGCAGAGGCGCUCACGUCGCGGCCCCUGUCAGAUUCUGGCGAAUCUGCGAAUUCUGCUGUAUAUCUC	0.09
UAACGGGGGGCCACAGCAGAGGCGUCCGCGUCGCAGCCACUGUCAGAUUCUGGUGAAUCUGCGAAUUCAGCUGUAUAUCUC	0.04
UAACGGGGGGCCACAGCAGAGGCGUCCACGUCGCUGCCCCUGUCAGAUUCUGGCGAAUCUGCGAAUUCUGCUGUAUAUCUC	0.55
UAACGGGGGGCCACAGCAGAGGCGUCCACGCCGCCGCCCCUGUCAGAUUCUGGAGAAUCUGCGAAUUCUGCUGUAUACCUC	0.12
UAACGGGGGGCCACAGCAGAGGCGUUCACGACGCAGCCCCAGUCAGAUUCUGGUGAAUCUGCGAAUUCAGCUGUAUAUCUC	0.07
UAACGGGGGGCCACAGCAGAGGCGUUCACGUCGCAGCCCCCGUCAGAUUCUGGUGAAUCUGCGAAUUCUGCUGUAUAUCUC	0.11
UAACGGGGGGCCACAGCAGAGGCGUUCACGUCGCAGCCCCCGUCAGAUUCUCGAGAAUCUGCGAAUUCUGCUGUAUAUCUC	0.31
UAACGGGGGGCCACAGCAGAGGCGUUCACGUCGCAGCCCCUGCCAGACUCCGGUGAAUCUGCGAAUUCUGCCGUAUAUCUC	0.19
UAACGGGGGGCCACAGCAGAGGCGUUCACGUCGCAGCCCCUGUCAGACUCUGGUGAAUCUGCGAAUUCUGCUGUAUAUCUC	0.53
